# Experimental data from PubChem BioAssay AID588453 (National Center for Advancing Translational Sciences (NCATS), 2011).
# Screen size: about 390,000 compounds; about 4,000 (1%) were called active. Inconclusive results, whose numbers are uncertain, are shown with a selection of clear calls. The call rests on the fitted dose curve; in most records, active means well fitted inhibition curve with a large enough effect; inconclusive means small, poorly fitted or top-dose-only effect; inactive means no such curve, though single readings can be large or run the other way. Where the call is inconclusive, the potency comes from a doubtful curve fit.
# Target: Thioredoxin reductase 1, cytoplasmic (Rattus norvegicus) (UniProt O89049)
# Chain of UniProt O89049 (O89049 whole entry, looked up): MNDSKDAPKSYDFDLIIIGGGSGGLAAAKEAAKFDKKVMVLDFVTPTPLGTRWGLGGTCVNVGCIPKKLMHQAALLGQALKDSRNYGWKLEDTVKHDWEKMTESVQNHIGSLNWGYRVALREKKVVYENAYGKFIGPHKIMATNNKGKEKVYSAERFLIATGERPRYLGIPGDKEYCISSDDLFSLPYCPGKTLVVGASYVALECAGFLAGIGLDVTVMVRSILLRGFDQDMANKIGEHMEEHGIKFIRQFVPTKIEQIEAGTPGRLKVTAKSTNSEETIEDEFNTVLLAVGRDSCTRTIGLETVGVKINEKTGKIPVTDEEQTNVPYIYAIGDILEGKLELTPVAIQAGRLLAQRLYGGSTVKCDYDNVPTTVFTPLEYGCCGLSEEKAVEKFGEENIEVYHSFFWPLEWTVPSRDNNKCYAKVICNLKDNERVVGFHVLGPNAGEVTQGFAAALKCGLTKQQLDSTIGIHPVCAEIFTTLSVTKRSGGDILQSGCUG
# Experiment: qHTS Assay for Inhibitors of Mammalian Selenoprotein Thioredoxin Reductase 1 (TrxR1): qHTS; further: nearly all actives have a fitted effect of over 65% in size
# Details: recombinant rTrxR1, NADPH fluorescence consumption, selenite substrate; series mostly up to 114 µM; activity change, negative = inhibition: at the top concentration
# In short: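 Rat TrxR1 (90 nM in the dispensed reagent) was pre-reduced with 400 uM NADPH for 5 min at room temperature, then incubated with compound for 15 min. After 400 uM selenite was added, NADPH fluorescence (Ex 340/Em 450 nm) was followed for 8 min.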
# On the % scale 0 is the no-effect control and ±100 the full control effect; potency means the concentration at half of the fitted maximal effect; tags describe the fitted curve by direction and shape.
SMILES,Potency,"activity change, negative = inhibition"
O=C(NC(=S)Nc1ccc(N2CCOCC2)cc1)c1cccc(Cl)c1,active: 10 µM,
O=Cc1s/c(=N\S(=O)(=O)c2ccccc2)n(CCCCl)c1Cl,"inconclusive: 0.794 µM [inhibitor, full curve, poor fit]",
CCc1ccc(-c2nc(CSCC(=O)NC3CC3)c(C)o2)cc1,,inactive: 16.6%
Cc1nn(Cc2ccc(C(=O)N3c4ccc(F)cc4CCC3C)o2)c(C)c1Br (stereo not given),"inconclusive: 44.7 µM [inhibitor, partial curve]",
OCCCNCc1ccc(Cl)cc1Cl,,inactive: 24.2% [at 57.1 µM]
CC(=O)Oc1ccc2oc(-c3ccccc3)c(C(N)=O)c2c1,,inactive: -7.9%
CCOC(=O)c1ccc2c(c1)N(CC(=O)Nc1ccc(C)cc1C)C(=O)c1ccccc1S2,,inactive: 7.75% [at 57.1 µM]
Cc1csc(C(C#N)C(=O)c2ccncc2)n1 (stereo not given),"inconclusive: 89.1 µM [inhibitor, single point]",
COc1cc(NC(=S)Nc2cccc(Cl)c2Cl)c(OC)cc1Cl,,inactive: -14.7%
O=C(O)/C=C/C(=O)Nc1ccc2c(c1)C(=O)c1ccccc1C2=O,,inactive: -10.5%
O=C(COC(=O)C1CCN(/C=C/C(=O)C(F)(F)F)CC1)Nc1ccccc1,"inconclusive: 79.4 µM [inhibitor, single point]",
Cn1cnnc1Sc1ccc(C(=O)OCC(=O)Nc2ccccc2)cc1[N+](=O)[O-],"inconclusive: 79.4 µM [inhibitor, partial curve, poor fit]",
CCCN1C(=O)C2(C(C(=O)c3ccc(C)o3)=C(O)C(=O)N2CCCN2CCOCC2)c2ccccc21 (stereo not given),"inconclusive: 44.7 µM [inhibitor, partial curve, poor fit]",
Cc1ccc2c(c1)sc1nc(-c3cc4ccccc4oc3=O)cn12,,inactive: 16.7%
COc1ccccc1OCC(O)CN1C(=O)NC(C)(C)C1=O (stereo not given),"inconclusive: 89.1 µM [inhibitor, single point]",
CN(CC(=O)Nc1ccccc1Br)C(=O)c1cc(S(=O)(=O)N(C)C)ccc1N1CCCC1,"inconclusive: 79.4 µM [inhibitor, single point]",
CC1(C)COC(/C=C/c2ccc([N+](=O)[O-])cc2)=N1,"inconclusive: 39.8 µM [inhibitor, partial curve, poor fit]",
Cc1ccc(-n2nc(CO)c(C(=O)NCCCCc3ccccc3)n2)cc1C,,inactive: 39.7%
CSc1ccc(CCNC(=O)c2cc(C)nc3c2c(C)nn3-c2ccccc2)cc1,,inactive: 0.568%
Cc1nc2cccnc2n1-c1cccc(C(=O)N2CCN(c3cccc(Cl)c3)CC2)c1,,inactive: 11.7%
CN1C(=O)/C(=C/c2cc(C(C)(C)C)c(O)c(C(C)(C)C)c2)NC1=S,"inconclusive: 39.8 µM [inhibitor, partial curve, poor fit]",
COc1ccc(NS(=O)(=O)c2cccc(C(=O)NCC(c3ccco3)N(C)C)c2)cc1 (stereo not given),"inconclusive: 35.5 µM [inhibitor, partial curve, poor fit]",
CC1=Nc2cc(C(=O)NCc3ccccc3Cl)ccc2Sc2c(C)ccc(C)c21,,inactive: 2.08%

SMILES,Potency,"activity change, negative = inhibition"
CC1=NN(c2ccccc2)C(=O)/C1=C/c1ccc(-c2ccc(C)c(C(=O)O)c2)o1,"inconclusive: 12.6 µM [inhibitor, partial curve, poor fit]",
C(=C\n1nnc2ccccc21)/c1ccc[nH]1,active: 12.6 µM,
COc1cc2c(cc1OC)CN(C(=O)CN1CCN(S(=O)(=O)c3ccccc3)CC1)CC2,"inconclusive: 89.1 µM [inhibitor, partial curve, poor fit]",
Clc1ccc(C2CC(c3ccco3)n3ncnc3N2)cc1Cl (stereo not given),"inconclusive: 44.7 µM [inhibitor, single point]",
COc1ccccc1N1CCN(c2cc(=O)n(Cc3ccc(F)cc3)c(=O)[nH]2)CC1,"inconclusive: 20 µM [inhibitor, partial curve]",
O=C(CCl)NNc1nc(-c2ccccc2)c2cc(Cl)ccc2n1,"inconclusive: 56.2 µM [inhibitor, single point]",
Cn1cnc([N+](=O)[O-])c1Oc1cccc2ccccc12,active: 8.91 µM,
O=C1c2cc([N+](=O)[O-])cc3cc([N+](=O)[O-])cc(c23)C(=O)N1c1ccccn1,"inconclusive: 56.2 µM [inhibitor, partial curve, poor fit]",
Cc1c(NC(=O)c2ccc(-c3cccc([N+](=O)[O-])c3)o2)cccc1-c1nc2cc(Cl)ccc2o1,"inconclusive: 79.4 µM [inhibitor, single point]",
Nc1c(C(=O)O)ccc2c1C(=O)c1ccccc1C2=O,,inactive: 5.59% [at 57.1 µM]
CN(C(=O)C1CCCO1)c1nnc(-c2ccccn2)s1 (stereo not given),"inconclusive: 79.4 µM [inhibitor, partial curve]",
CCS(=O)(=O)NCCc1csc(-c2ccccc2)n1,"inconclusive: 7.08 µM [inhibitor, partial curve, poor fit]",
CCCCNCCS(=O)(=O)NCc1ccccc1OC,,inactive: 17.2%
COc1ccc(-c2n[nH]c3c2C(c2ccc(OC)c(OC)c2)N(c2ccccc2)C3=O)cc1 (stereo not given),,inactive: 9.43%
CCc1nc2nc(C)c(NS(=O)(=O)c3ccc(C(C)(C)C)cc3)c(=O)n2[nH]1,,inactive: 9.97%
CCCN(C(=O)/C=C/c1ccco1)c1c(N)n(Cc2ccccc2)c(=O)[nH]c1=O,"inconclusive: 25.1 µM [inhibitor, single point]",
COc1ccccc1-n1c(-c2cc(-c3ccco3)[nH]n2)n[nH]c1=S,active: 44.7 µM,
CC1Cc2ccccc2N1C(=S)NC(=O)c1cccc(Br)c1 (stereo not given),"inconclusive: 44.7 µM [inhibitor, partial curve]",
C#CC[N+](C)(C)CCCCCCCCCCCC,"inconclusive: 3.16 µM [inhibitor, partial curve, poor fit]",
CCOc1ccccc1NC(=O)C(OC(=O)c1ccccc1O)c1ccccc1 (stereo not given),"inconclusive: 89.1 µM [inhibitor, partial curve, poor fit]",
Cn1c(CCN2CCOCC2)nc2cc(NC(=O)COc3ccc(Cl)cc3)ccc21,"inconclusive: 89.1 µM [inhibitor, single point]",
O=C(Nc1ccc(N2CCN(C(=O)c3ccco3)CC2)cc1)c1ccc2c(c1)OCO2,,inactive: 16.8%
